The list shows a part of the results.
What was measured:
Assay in all cases: glycan array binding signal (z-score within array); higher = stronger binding
Conditions in all cases: glycan notation: IUPAC condensed, linker removed
[1] = biological target: Man(a1-2)Man(a1-3)[Man(a1-6)]Man(a1-6)[Man(a1-2)Man(a1-3)]Man(b1-4)GlcNAc(b1-4)GlcNAc
Outline: (§1)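 Glycan array binding is given as a within-array Z-score, which can be read as non-binding when negative. The arrays, 3228 of them, came from the Consortium for Functional Glycomics database and were retained only where the protein sequence was available. Z-scores were averaged across arrays of the same protein sequence at different concentrations or buffers and across linkers.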

[2] = biological target: Man(a1-2)Man(a1-6)[Man(a1-3)]Man(a1-6)[Man(a1-2)Man(a1-2)Man(a1-3)]Man
Outline: as §1

[3] = biological target: Man(a1-2)Man(a1-6)[Man(a1-3)]Man(a1-6)[Man(a1-2)Man(a1-2)Man(a1-3)]Man(b1-4)GlcNAc(b1-4)GlcNAc
Outline: as §1

Man(a1-3)[Man(a1-6)]Man = biological target: Man(a1-3)[Man(a1-6)]Man
Outline: as §1

[4] = biological target: Man(a1-3)[Man(a1-6)]Man(a1-6)[Man(a1-2)Man(a1-3)]Man(b1-4)GlcNAc(b1-4)GlcNAc
Outline: as §1

[5] = biological target: Man(a1-3)[Man(a1-6)]Man(a1-6)[Man(a1-3)]Man
Outline: as §1

[6] = biological target: Man(a1-3)[Man(a1-6)]Man(a1-6)[Man(a1-3)]Man(b1-4)GlcNAc(b1-4)GlcNAc
Outline: as §1

[7] = biological target: Man(a1-3)[Man(a1-6)]Man(b1-4)GlcNAc(b1-4)GlcNAc
Outline: as §1

Man(a1-6)Man = biological target: Man(a1-6)Man
Outline: as §1

Man(b1-4)GlcNAc = biological target: Man(b1-4)GlcNAc
Outline: as §1

Neu5Ac(a2-3)Gal = biological target: Neu5Ac(a2-3)Gal
Outline: as §1

[8] = biological target: Neu5Ac(a2-3)Gal(b1-3)GalNAc
Outline: as §1

[9] = biological target: Neu5Ac(a2-3)Gal(b1-3)GalNAc(b1-3)Gal(a1-4)Gal(b1-4)Glc
Outline: as §1

[10] = biological target: Neu5Ac(a2-3)Gal(b1-3)GalNAc(b1-4)[Neu5Ac(a2-3)]Gal(b1-4)Glc
Outline: as §1

[11] = biological target: Neu5Ac(a2-3)Gal(b1-3)GalNAc(b1-4)[Neu5Ac(a2-8)Neu5Ac(a2-3)]Gal(b1-4)Glc
Outline: as §1

[12] = biological target: Neu5Ac(a2-3)Gal(b1-3)GalNAc6S
Outline: as §1

[13] = biological target: Neu5Ac(a2-3)Gal(b1-3)GlcNAc
Outline: as §1

[14] = biological target: Neu5Ac(a2-3)Gal(b1-3)GlcNAc(b1-3)Gal(b1-3)GlcNAc
Outline: as §1

[15] = biological target: Neu5Ac(a2-3)Gal(b1-3)GlcNAc(b1-3)Gal(b1-4)GlcNAc
Outline: as §1

[16] = biological target: Neu5Ac(a2-3)Gal(b1-3)GlcNAc(b1-3)GalNAc
Outline: as §1

[17] = biological target: Neu5Ac(a2-3)Gal(b1-3)GlcNAc6S
Outline: as §1

[18] = biological target: Neu5Ac(a2-3)Gal(b1-3)[Fuc(a1-4)]GlcNAc
Outline: as §1

[19] = biological target: Neu5Ac(a2-3)Gal(b1-3)[Fuc(a1-4)]GlcNAc(b1-3)Gal(b1-3)[Fuc(a1-4)]GlcNAc
Outline: as §1

[20] = biological target: Neu5Ac(a2-3)Gal(b1-3)[Fuc(a1-4)]GlcNAc(b1-3)Gal(b1-4)[Fuc(a1-3)]GlcNAc
Outline: as §1

[21] = biological target: Neu5Ac(a2-3)Gal(b1-3)[Neu5Ac(a2-3)Gal(b1-4)]GlcNAc
Outline: as §1

[22] = biological target: Neu5Ac(a2-3)Gal(b1-3)[Neu5Ac(a2-6)]GalNAc
Outline: as §1

Neu5Ac(a2-3)Gal(b1-4)Glc = biological target: Neu5Ac(a2-3)Gal(b1-4)Glc
Outline: as §1

[23] = biological target: Neu5Ac(a2-3)Gal(b1-4)GlcNAc
Outline: as §1

[24] = biological target: Neu5Ac(a2-3)Gal(b1-4)GlcNAc(b1-2)Man(a1-3)[GlcNAc(b1-2)Man(b1-4)GlcNAc(b1-2)Man(a1-6)]Man(b1-4)GlcNAc(b1-4)GlcNAc
Outline: as §1

[25] = biological target: Neu5Ac(a2-3)Gal(b1-4)GlcNAc(b1-2)Man(a1-3)[Neu5Ac(a2-6)Gal(b1-4)GlcNAc(b1-2)Man(a1-6)]Man(b1-4)GlcNAc(b1-4)GlcNAc
Outline: as §1

[26] = biological target: Neu5Ac(a2-3)Gal(b1-4)GlcNAc(b1-3)Gal
Outline: as §1

[27] = biological target: Neu5Ac(a2-3)Gal(b1-4)GlcNAc(b1-3)Gal(b1-3)GlcNAc
Outline: as §1

[28] = biological target: Neu5Ac(a2-3)Gal(b1-4)GlcNAc(b1-3)Gal(b1-4)GlcNAc
Outline: as §1

[29] = biological target: Neu5Ac(a2-3)Gal(b1-4)GlcNAc(b1-3)Gal(b1-4)GlcNAc(b1-3)Gal(b1-4)GlcNAc
Outline: as §1

[30] = biological target: Neu5Ac(a2-3)Gal(b1-4)GlcNAc(b1-3)Gal(b1-4)[Fuc(a1-3)]GlcNAc
Outline: as §1

[31] = biological target: Neu5Ac(a2-3)Gal(b1-4)GlcNAc(b1-3)GalNAc
Outline: as §1

[32] = biological target: Neu5Ac(a2-3)Gal(b1-4)GlcNAc(b1-6)[Gal(b1-3)]GalNAc
Outline: as §1

[33] = biological target: Neu5Ac(a2-3)Gal(b1-4)GlcNAc(b1-6)[Neu5Ac(a2-3)Gal(b1-3)]GalNAc
Outline: as §1

[34] = biological target: Neu5Ac(a2-3)Gal(b1-4)GlcNAc6S
Outline: as §1

[35] = biological target: Neu5Ac(a2-3)Gal(b1-4)[Fuc(a1-3)]GlcNAc
Outline: as §1

[36] = biological target: Neu5Ac(a2-3)Gal(b1-4)[Fuc(a1-3)]GlcNAc(b1-3)Gal
Outline: as §1

[37] = biological target: Neu5Ac(a2-3)Gal(b1-4)[Fuc(a1-3)]GlcNAc(b1-3)Gal(b1-4)GlcNAc
Outline: as §1

[38] = biological target: Neu5Ac(a2-3)Gal(b1-4)[Fuc(a1-3)]GlcNAc(b1-3)Gal(b1-4)[Fuc(a1-3)]GlcNAc(b1-3)Gal(b1-4)[Fuc(a1-3)]GlcNAc
Outline: as §1

[39] = biological target: Neu5Ac(a2-3)Gal(b1-4)[Fuc(a1-3)]GlcNAc(b1-3)GalNAc
Outline: as §1

[40] = biological target: Neu5Ac(a2-3)Gal(b1-4)[Fuc(a1-3)]GlcNAc(b1-6)[Gal(b1-3)]GalNAc
Outline: as §1

[41] = biological target: Neu5Ac(a2-3)Gal(b1-4)[Fuc(a1-3)]GlcNAc6S
Outline: as §1

[42] = biological target: Neu5Ac(a2-3)Gal6S(b1-4)GlcNAc
Outline: as §1

[43] = biological target: Neu5Ac(a2-3)Gal6S(b1-4)[Fuc(a1-3)]GlcNAc
Outline: as §1

Neu5Ac(a2-3)GalNAc = biological target: Neu5Ac(a2-3)GalNAc
Outline: as §1

[44] = biological target: Neu5Ac(a2-3)GalNAc(b1-4)GlcNAc
Outline: as §1

B1: Gal 9 (Canis lupus) (protein)
chain: MAFSSSQPPYLSPGVPFSGKIQGGLQDGLKITINGTILYCNGTRFAVNFHSGHSDSDIAFHFNPRFEEGGYVVCNTKQKGSWGSEERKMQMPFQMGNPFELCFMVNSCDFKVTVNGSHFTQYSHRVPFHYVDTLSITGAVQLSYISFQSPGVWQSSSAPITQTVIHTVQTTPGQPFPNPIIPPTAYPTPTYPMPFFTSIPGGLYPSKSIIVSGTVLPGAKRFHINLRSGNDIAFHLNPRFNENTVVRNMQINNSWGSEERSLPRKMPFVQGQSFSVWIMCEGHCFKVAVDGEHLFEYYHRLKNLLAINNMEVAGDVQLTHVQT
[1]
  glycan array binding signal (z-score): -0.326
[2]
  glycan array binding signal (z-score): -0.328
[3]
  glycan array binding signal (z-score): -0.303
Man(a1-3)[Man(a1-6)]Man
  glycan array binding signal (z-score): -0.345
[4]
  glycan array binding signal (z-score): -0.338
[5]
  glycan array binding signal (z-score): -0.346
[6]
  glycan array binding signal (z-score): -0.322
[7]
  glycan array binding signal (z-score): -0.344
Man(a1-6)Man
  glycan array binding signal (z-score): -0.35
Man(b1-4)GlcNAc
  glycan array binding signal (z-score): -0.344
Neu5Ac(a2-3)Gal
  glycan array binding signal (z-score): -0.335
[8]
  glycan array binding signal (z-score): 0.374
[9]
  glycan array binding signal (z-score): 0.612
[10]
  glycan array binding signal (z-score): 1.3
[11]
  glycan array binding signal (z-score): -0.276
[12]
  glycan array binding signal (z-score): 0.182
[13]
  glycan array binding signal (z-score): 0.401
[14]
  glycan array binding signal (z-score): 0.38
[15]
  glycan array binding signal (z-score): 0.34
[16]
  glycan array binding signal (z-score): 0.089
[17]
  glycan array binding signal (z-score): -0.027
[18]
  glycan array binding signal (z-score): -0.346
[19]
  glycan array binding signal (z-score): -0.315
[20]
  glycan array binding signal (z-score): -0.306
[21]
  glycan array binding signal (z-score): -0.336
[22]
  glycan array binding signal (z-score): -0.055
Neu5Ac(a2-3)Gal(b1-4)Glc
  glycan array binding signal (z-score): 0.07
[23]
  glycan array binding signal (z-score): 0.067
[24]
  glycan array binding signal (z-score): 0.283
[25]
  glycan array binding signal (z-score): 0.147
[26]
  glycan array binding signal (z-score): 0.219
[27]
  glycan array binding signal (z-score): 0.202
[28]
  glycan array binding signal (z-score): 0.203
[29]
  glycan array binding signal (z-score): 0.602
[30]
  glycan array binding signal (z-score): 0.095
[31]
  glycan array binding signal (z-score): 0.071
[32]
  glycan array binding signal (z-score): 0.001
[33]
  glycan array binding signal (z-score): 0.287
[34]
  glycan array binding signal (z-score): 0.324
[35]
  glycan array binding signal (z-score): -0.21
[36]
  glycan array binding signal (z-score): -0.343
[37]
  glycan array binding signal (z-score): -0.306
[38]
  glycan array binding signal (z-score): -0.327
[39]
  glycan array binding signal (z-score): -0.217
[40]
  glycan array binding signal (z-score): -0.301
[41]
  glycan array binding signal (z-score): -0.33
[42]
  glycan array binding signal (z-score): -0.334
[43]
  glycan array binding signal (z-score): -0.323
Neu5Ac(a2-3)GalNAc
  glycan array binding signal (z-score): -0.328
[44]
  glycan array binding signal (z-score): 0.173

Reference: the supplement of paper PMC8728848
